The record followed here is PubChem BioAssay (NCI).

Some structures have more than one record in an assay (separate samples or runs), and their calls can disagree.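 Step 1: grow cells in 96-well plates. Step 2: add test compound at a single concentration. Step 3: incubate 48 h. Step 4: record percent growth.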 Some entries of the source have several records that differ or are many. This is not the full list of results. An entry can have further records. How the source made its calls: active means growth percent below 10; inactive means the rest. This drug was run again and again over the years, at the concentration stated with the values; each value is one run. Marks such as (2×) say how often a value occurs here.

In this experiment the test system is K-562 leukemia. Description: NCI-60 one-dose screen, 48 h (100 = growth as untreated, 0 = no growth, -100 = all killed).

Regarding `COc1cccc2c1C(=O)c1c(O)c3c(c(O)c1C2=O)C[C@@](O)(C(=O)CO)C[C@@H]3OC1CC(N)C(O)C(C)O1` (stereo not given in full), the growth entry is, setting by setting: (0.25 µM, runs of 2009) “inactive: 30, 31.7, 35.1, 44.7, 29, 56.9, 58.5, 34.3, 34.5 (2×), 39.7, 39.9, 32.6, 27.3, 53.1 (2×), 43.6, 22.4, 65.7, 56, 46.5 (3×), 41.2, 42.7, 37.2 (2×), 43.4, 28.9, 51.5, 56.5, 51, 50, 51.7 (2×), 39.4, 44.3, 37.7 (2×), 51.1, 19.2, 41.4, 45, 36.6, 41.3, 37.1, 35.5, 36.8, 31.5, 31.1, 45.6 (2×), 36.3, 16.4, 38.2, 30.4, 39.6, 42.9, 66.1, 52.2, 70.5, 40.1, 50.7, 47.6%”; (0.25 µM, runs of 2010) “inactive: 50.6, 60.7, 47.2, 48, 44.9, 44.8, 58.3, 43 (2×), 65.5, 49.2, 37.1, 47.3, 49.5, 41.9, 47, 41.2 (2×), 40.3, 44.2, 49.1, 27.3, 36.2 (2×), 39 (2×), 33.2 (2×), 34.5, 37.8 (2×), 35.3, 33.4, 42.5, 38.2, 36.9, 67, 45.2, 35.1, 44.5 (2×), 31.9, 33.5, 36.1, 27.1, 53.5, 47.8, 36.6, 42.2, 35.2, 39.2, 40.2, 33.6%”; (0.25 µM, runs of 2011) “inactive: 42.5, 32.7, 37.5 (2×), 44, 41.7, 53, 42.4, 32.6, 37.7, 37.3, 48.7, 48, 38.5, 46.9 (2×), 63.1, 49.1, 55.2, 52.6, 50.6, 46.4, 39.4, 88.6, 37.9, 18.6, 36.6, 26.3, 31.9, 21, 28, 34.4, 26.4, 47.8, 48.6, 52.2, 38.9, 37.1, 41.4, 30%”; (0.25 µM, runs of 2012) “inactive: 54.6, 32.3, 48.2 (2×), 27.5, 46.1, 36.8, 43.7 (2×), 41.1, 30.8, 29.8, 32.2, 41.4, 21.5, 54, 32.1, 38.6, 34.6 (2×), 33.2, 27.4, 30.1, 33.5, 40.3, 39.4, 36, 40.8 (2×), 46.4, 48.3, 38.2, 36.7, 43.4, 38.5, 43.9, 42.2, 41.8, 58.3, 35.4, 37.3, 20.3, 39, 43.8 (2×), 69.6, 27, 39.9, 35.8, 52.9, 46.5, 44.9, 55.1, 56.7, 51, 50, 59.6, 30.5, 36.2, 23.8, 19.1, 29.4, 21 (2×), 31.6, 29.3, 41.2, 28.4, 18.4% and active: -6.85%”; (0.25 µM, runs of 2013) “inactive: 30.8, 23, 22.3, 29.9, 38.5 (2×), 41.6 (2×), 41.4, 43.2, 28.8, 37.3, 38.1, 31.7, 52.6, 51.1 (2×), 43 (2×), 49.4, 45.9, 27.4, 41.2 (2×), 40.3 (2×), 32.8, 55.2, 44.2 (2×), 36.8, 28.9, 46.1, 23.4, 48.4, 47.4, 50.3 (2×), 40.8, 64.6, 59, 34.3, 54.9, 39.8, 30.1, 39.5 (2×), 33.2 (2×), 27.8, 23.1, 19.9, 64.2, 56.9, 22.7, 47.3, 52.5, 47.8, 29.8, 21.5, 44.5, 28.7, 51.6, 54, 16.6, 41.7, 41, 20, 28.4, 27.1, 26.2, 24.8%”; (0.25 µM, runs of 2014) “inactive: 28.2, 20.4, 29.1, 15.9, 38.3, 17.5, 38.9, 41.5 (2×), 36.7, 25.2, 16.7, 47.5 (2×), 32.2, 52.7, 21.2, 45.3, 58.2, 28.9, 58.8, 32.4, 51.7, 44.6, 41.4, 56.4, 49.3, 50.4, 42.4, 42.7, 46.9, 48, 46.6, 43.4, 39.4, 50.7, 48.4, 47.9, 60.4, 59, 51.6, 47.6, 53.4, 48.2, 38.5, 41 (2×), 42.9, 46.2, 47, 47.4, 32.3, 38.4, 39.6, 41.6, 33.9, 38.8, 40.3, 33.4 (2×), 39.8, 41.9, 38.7, 32.6 (2×), 43, 44.5, 45.9, 34.4, 39.5%”. Besides, the growth result by setting is: (0.25 µM, runs of 2015) “inactive: 51.8, 36.7, 35.8, 28.6, 25.5, 36 (2×), 36.4, 48.9, 32.2, 30.7, 47.4 (2×), 54.9, 26.3, 29.9, 33.1, 35.5, 26.4, 28.4, 48.6, 52.5, 44.7 (2×), 58, 51.6, 50.4, 48.7, 44.5, 54 (2×), 31.2, 29.2, 44.3, 44.4, 30.4, 44, 36.3, 37.2, 46.5, 48.4, 29.4, 44.8, 36.8, 45.6, 41.6, 67, 38.5 (2×), 42.7 (2×), 43.6, 39.9, 37.7, 41.7, 59.7, 37.3, 29.5, 32.9 (2×), 33.9 (2×), 39.7, 33.4, 37.5, 38.9, 39, 36.1 (2×), 40.7, 42.6, 55.7, 59, 44.1, 30.3, 31.6, 42.9, 35.2, 35.9, 47%”; (0.25 µM, runs of 2016) “inactive: 48.9, 51.6 (2×), 44.7, 46.3, 42.6, 32.7, 26.7, 26.2, 55.8, 45.6, 51, 43.4, 49.2, 44.5, 47, 29.8, 35.4, 30, 40.1, 35.2 (2×), 33.4, 34, 33 (2×), 37.7, 34.2 (2×), 31.9, 31.7, 27.5, 34.6, 31.6, 34.8, 36.9, 43.2, 47.1, 50.9, 49.3, 39, 46.9, 39.9, 44.6, 43.7, 45.4, 45.2, 42.5, 44.9, 41.3, 39.8, 48.1, 42.1, 47.6, 46.6, 47.8, 47.2, 43.6, 55, 56.3, 55.2, 53.8, 46.1, 52.4, 35.3, 38.5, 47.4, 57.5, 60.8, 41.5, 40.2, 38.9, 41.7, 40.5, 48.5, 51.4, 39.7, 39.4%”; (0.25 µM, runs of 2017) “inactive: 43.8, 43.2, 42.6, 35.5 (2×), 34.8 (3×), 32.5, 32.8 (2×), 31.4 (2×), 35.1, 31.2, 29.1, 33.8 (2×), 29.5, 33.6, 38.8, 24.1, 27.3 (3×), 30.5 (2×), 28.9, 38.2, 37.1, 31.5 (2×), 38.1, 33.5, 32.7, 28.7 (2×), 45, 33.1, 31.7 (2×), 35.2, 39.6, 30.4 (2×), 33.7, 27 (2×), 35.3, 33.4, 37.7, 18.4, 23.8, 34, 44, 34.1 (2×), 25.6, 35.4, 25.8, 31.9 (2×), 26, 30.2, 29, 32.3, 27.8, 36.7, 23.7, 31.1, 35.8 (2×), 32.2, 30.3, 44.8, 34.7, 34.2, 28.2%”; (0.25 µM, runs of 2018) “inactive: 39.4 (2×), 41.8, 36.3 (2×), 35.8, 33.5, 33 (2×), 31.6, 25.4, 36.8, 35.6 (3×), 35.4, 38.6 (2×), 39.8, 44, 37.5, 41.5, 37.8, 32.5, 41, 40.7, 43.4 (2×), 39.7, 32, 34.5, 37.2, 37.3, 42.6, 44.1, 40.5, 41.9, 36.4, 31.4, 32.4, 33.6 (2×), 38.2, 38.9, 15.7, 22.8%”; (0.25 µM, runs of 2019) “inactive: 25.8, 21.7 (2×), 24.8, 20.5, 26.2, 25, 30.5, 33.5, 29.8, 28.5 (3×), 25.7, 23.6 (2×), 27.7, 27.2, 32.5, 31.3 (2×), 33.2, 28.3, 31.9, 36.6, 31, 41.5, 30.7, 48, 39, 41, 44.5, 47.2, 28.2 (2×), 26.3, 25.4 (3×), 28.8 (2×), 25.6 (3×), 25.1, 26.1, 26, 27.9, 28, 30.3, 29.3, 27, 33.4%”; (0.25 µM, runs of 2020) “inactive: 19.8, 23.1, 31.1, 32.8, 27.8, 31.7, 36, 37.1, 36.1 (2×), 34.4, 38.1, 28.3, 29.1, 33.8, 29.2, 38.9, 33.1, 30 (2×), 41.2, 38.7, 41.1, 36.2, 39.6, 40.4%”. The growth result by setting is: (0.25 µM, runs of 2021) “inactive: 37.1, 43.9, 33.5 (2×), 37.9, 43, 38.5, 38.3, 36.9, 40.2, 33.7, 33.3, 38.1 (3×), 31.2, 34.4, 33.2, 40.7, 33.1, 27.4, 27.8, 28.5, 35.5, 30.8, 32.4, 26.4, 28.4 (2×), 24.1, 27.1, 26.6, 34.6, 33.4 (2×), 41, 31.3, 32.6, 33, 28.8, 36.6 (2×), 36.7, 34.7, 40.4, 25 (2×), 28.1, 30.3, 24.9, 31.9, 22.6, 22.8, 32.5, 32.7%”; (0.25 µM, runs of 2022) “inactive: 31.9, 48.5, 20.9, 26.2, 31.4 (2×), 41.5, 35.3, 37.8, 33.9, 34.6, 33.3, 32.1, 22, 46.9, 64.9, 58.2, 52.6, 74.7, 28.4, 29.2, 34.3, 32.8% and active: -3.36%”; (25 µM, runs of 1991) “active: -26.8, -3.66, -4.57, 1.96, -46.6, -31.7, -38, -3.33, 0.164, -25.8, -27.3, 2.52, -27.9, -19.2% and inactive: 18.9, 22.8, 16.1, 18.3%”.
